From publication PMC4336329 (PLoS ONE, 2015)
Out of some 310,000 compounds screened, about 14,000 (4.5%) showed an effect of 50% or more. Effects have a minus sign here. Some of the results follow.

target: human ether-à-go-go-related gene (hERG) potassium channel (human, UniProt Q12809); assay: primary screen, population patch clamp on CHO cells stably expressing hERG
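Further: peak tail current of the secondary pulse compared with the same well before compound.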

Sequence of human ether-à-go-go-related gene (hERG) potassium channel (Q12809 whole entry, looked up): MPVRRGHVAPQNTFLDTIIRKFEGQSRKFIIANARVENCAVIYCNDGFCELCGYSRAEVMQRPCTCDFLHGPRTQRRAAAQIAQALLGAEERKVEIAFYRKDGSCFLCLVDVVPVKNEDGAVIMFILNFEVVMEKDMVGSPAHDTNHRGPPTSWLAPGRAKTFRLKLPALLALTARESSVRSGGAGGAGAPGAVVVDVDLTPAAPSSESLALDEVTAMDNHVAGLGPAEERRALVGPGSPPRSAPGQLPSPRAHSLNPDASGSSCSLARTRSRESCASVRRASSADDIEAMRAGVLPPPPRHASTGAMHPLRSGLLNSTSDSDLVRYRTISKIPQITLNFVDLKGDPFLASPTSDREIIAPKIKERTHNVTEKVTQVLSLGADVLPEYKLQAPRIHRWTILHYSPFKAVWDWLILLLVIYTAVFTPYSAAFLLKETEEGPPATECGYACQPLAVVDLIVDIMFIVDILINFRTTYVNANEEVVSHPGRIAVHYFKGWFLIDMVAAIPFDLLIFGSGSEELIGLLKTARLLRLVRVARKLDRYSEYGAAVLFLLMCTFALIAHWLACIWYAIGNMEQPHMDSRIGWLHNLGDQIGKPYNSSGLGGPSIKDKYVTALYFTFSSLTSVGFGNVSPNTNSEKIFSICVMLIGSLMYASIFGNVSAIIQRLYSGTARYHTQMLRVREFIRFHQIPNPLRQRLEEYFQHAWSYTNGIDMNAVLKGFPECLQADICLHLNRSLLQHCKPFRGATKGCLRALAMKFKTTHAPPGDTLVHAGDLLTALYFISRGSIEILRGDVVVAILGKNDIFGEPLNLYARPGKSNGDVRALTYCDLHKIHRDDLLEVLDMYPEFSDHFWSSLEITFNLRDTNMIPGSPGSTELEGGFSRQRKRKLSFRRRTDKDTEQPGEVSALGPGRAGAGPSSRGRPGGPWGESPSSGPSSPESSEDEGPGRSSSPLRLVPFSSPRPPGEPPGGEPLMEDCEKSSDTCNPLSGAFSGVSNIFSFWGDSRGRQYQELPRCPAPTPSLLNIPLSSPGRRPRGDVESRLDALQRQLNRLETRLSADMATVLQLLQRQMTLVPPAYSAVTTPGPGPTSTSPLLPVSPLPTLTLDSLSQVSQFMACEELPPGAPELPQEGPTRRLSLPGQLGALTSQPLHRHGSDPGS

Row | Compound | hERG current change (%, negative = inhibition) at 10uM [%]
1 | O=C(Nc1cc(F)ccc1F)c1ccc(-n2cncn2)c([N+](=O)[O-])c1 | -5.31
2 | O=C(Nc1nc(-c2ccc3c(c2)OCCO3)cs1)c1ccco1 | 8.53
3 | O=c1cc(Cn2ccnc2)c2cc(O)ccc2o1 | 19.9
4 | Cc1ccc(S(=O)(=O)N2CCC(C(=O)OCC(=O)N3CCC(C)CC3)CC2)cc1C | 7.85
5 | COc1ccc2c3c([nH]c2c1)C1CC2C(CC(O)C(OC)C2C(=O)O)CN1CC3 (stereo not shown) | 20.7
6 | COC(=O)c1ccc(COc2ccc(C3C4=C(CCCC4=O)Nc4onc(C)c43)cc2)cc1 (stereo not shown) | -9.61
7 | CCc1nnc(NC(=O)c2ccc(S(=O)(=O)N3CCOCC3)cc2)s1 | -0.412
8 | COc1ccc(NS(=O)(=O)c2csc(C(N)=O)c2)cc1OC | 20
9 | CCn1c(SCC(=O)NNC(=S)Nc2ccccc2)nnc1-c1ccc(Cl)cc1 | -6.7
10 | COc1cc(C(=O)Nc2c(C)cc(C)cc2C)c(Br)c(OC)c1OC | 1.92
11 | Cc1ccc(OCCCC(=O)N2CCOCC2)cc1 | 14.9
12 | Cc1ccc(C(=O)NC(NC(=O)c2ccc(C)cc2)c2cccc([N+](=O)[O-])c2)cc1.O | 5.51
13 | CCO[C@H]1OC(C(=O)O)=C[C@@H](c2cn(C(C)=O)c3ccccc23)[C@@H]1CCCO | 18.2
14 | O=C(CCc1ccccc1)NC(=S)Nc1ccccc1Br | 19.9
15 | CCC(=O)Nc1ccc2oc(-c3cccnc3)nc2c1 | 9.1
16 | CN1C(=O)C(=Cc2cn(CC(=O)N3CCCCC3)c3ccccc23)C(=O)N(C)C1=O | -0.441
17 | Cc1cccc(-c2ocnc2C(=O)Nc2ccccc2NC(=O)c2ccccn2)c1 | -15.8
18 | O=C(NNC1=Nc2ccccc2SC1)c1cccc([N+](=O)[O-])c1 | -11.5
19 | CC(C)c1ccc(CNc2ccc(N3CCOCC3)cc2)cc1 | 11.5
20 | CC(C)CN1CCC(=O)N(CCC#N)CC1 | -7.02
21 | COC(=O)C1CCCN1C(=O)c1cccs1 (stereo not shown) | 8.3
22 | Cc1ccc(OCCCn2ccnc2)c(Br)c1 | -2.06

Row | Compound | hERG current change (%, negative = inhibition) at 10uM [%]
23 | CCOC(=O)C1(CCc2ccccc2)CCN(Cc2ccccn2)CC1 | -74.3
24 | O=C(NCCCn1ccnc1)NC(C(F)(F)F)C(F)(F)F | 3.68
25 | Cn1ncc2c(Nc3ccc(Cl)cc3)ncnc21 | 3.42
26 | O=C(CN1CCN(C(=O)C2CCCO2)CC1)Nc1ccc(Cl)c(Cl)c1 (stereo not shown) | -22.5
27 | O=C(COc1ccc(Cl)cc1)N1CCN(Cc2ccc([N+](=O)[O-])cc2)CC1.O=C(O)C(=O)O | -74.2
28 | CC(OC(=O)c1ccc(O)cc1)C(=O)Nc1nc(-c2ccccc2)cs1 (stereo not shown) | -17.8
29 | OCCCCC#Cc1c(-c2ccsc2)sc2ccccc12 | 0.229
30 | Cc1ccc(NC(=O)CN2C(=O)NC(C)(c3ccc(Cl)cc3)C2=O)cc1 (stereo not shown) | 16.1
31 | CC(=O)Nc1c2c3c(cccc3n(C)c1=O)C(=O)c1ccccc1-2 | -3.24
32 | CCOC(=O)c1c(NC(=O)C2C3C=CC(C3)C2(C)C(=O)O)sc2c1CCCC2 (stereo not shown) | -1.33
33 | Clc1ccc(-c2n[nH]c3c2CCC3)cc1Cl | 20.4
34 | CCCn1c(=N)n(CC(O)c2ccc(C)cc2)c2ccccc21.Cl (stereo not shown) | -65.6
35 | CCCCNC(=O)CS(=O)Cc1nc(-c2cccs2)oc1C (stereo not shown) | -21.1
36 | CCC(CC)NC(=O)Nc1ccc(F)c(Cl)c1 | -7.65
37 | N=c1c2c3c(sc2ncn1Nc1ccccc1)CCC3 | -29.6
38 | NC(=O)c1nsc(C(=O)N(Cc2cccnc2)C(C(=O)NCc2ccc(F)cc2)c2ccc(O)cc2)c1N (stereo not shown) | -1.96
39 | Nc1c(N(Cc2ccccc2)C(=O)COc2ccc(F)cc2)c(=O)[nH]c(=O)n1Cc1ccccc1 | 9
40 | CN1CCN(c2ccc(/C=C3\C(=O)NC(=S)N(c4cccc(Br)c4)C3=O)o2)CC1 | -23.9
41 | CCCCc1ccc(NC2=NCC(=O)N2CCc2ccccc2)cc1.Cl | -11.4
42 | O=C(Cc1nnc(NC(=O)Nc2ccccc2)s1)NCc1ccccc1 | 13.4
43 | O=C(C[n+]1cc(-c2ccccc2)n2c1CCC2)c1cccs1.[Br-] | -3.31
44 | C[C@H](NC(=O)c1[nH]cnc1C(=O)N[C@H](C)c1ccccc1)c1ccccc1 | 5.82

Row | Compound | hERG current change (%, negative = inhibition) at 10uM [%]
45 | COc1ccc(NC(=O)c2ccc(Cc3ccc(C)cc3)o2)cc1 | -23.5
46 | COc1cccc(NC(=O)CSc2ncc(S(=O)(=O)c3ccccc3)c(=O)[nH]2)c1 | -3.71
47 | CCOCCCNC(=O)C1CCN(S(=O)(=O)c2ccc(C)cc2)CC1 | 8.68
48 | O=C(N/N=C/c1ccncc1)c1cccc(N/N=C/c2ccncc2)c1 | -15.6
49 | O=C1c2ccccc2C(Nc2ccc3c(c2)OCO3)N1Cc1ccc2c(c1)OCO2 (stereo not shown) | 2.04
50 | Cc1cccc(CCNC(=O)c2cc(S(=O)(=O)N3CCOCC3)cn2C)c1 | -19.1
51 | COc1cc(C)ccc1S(=O)(=O)n1nc(C)cc1C | 14.3
52 | COc1ccc(-n2cc(C(=O)c3ccc4ccccc4c3O)cn2)cc1 | 24.3
53 | O=C(Cc1ccccc1[N+](=O)[O-])OCc1cccc([N+](=O)[O-])c1 | -12.1
54 | CC(=O)N1CCc2cc(Br)cc(S(=O)(=O)N3CCN(C(=O)c4ccco4)CC3)c21 | -7.03
55 | COc1cccc(CN2CCN(C(=O)c3cc(-c4ccncc4)nc4ccc(C)cc34)CC2)c1 | -71
56 | COc1ccc(Cl)cc1NC(=O)c1cnc2n(c1=O)CCS2 | -1.56
57 | CC(C)(C)n1nc(-c2ccc(F)cc2)c2c(N)ncnc21 | -4.74
58 | O=C(NCc1ccc(Cl)cc1)C1=Cc2cc(Cl)ccc2OC1 | -10.2
59 | O=C(/C=C/c1ccccc1)N/C(=C/c1ccccc1)C(=O)NCCO | -11.6
60 | CN(C)S(=O)(=O)c1cccc(CSc2cccc[n+]2[O-])c1 | 7.51
61 | CSc1nnc(C)c(/C=C/Nc2ccc(C)cc2)n1 | 3.85
62 | COCCCNCCCCOc1c(Cl)cc(C)cc1Br.O=C(O)C(=O)O | -49.2
63 | O=C(CSc1nnnn1-c1cccc(F)c1)Nc1nc2ccccc2s1 | 8.36
64 | CC(C)C[C@@]12C(=O)N(c3cccc(F)c3)C(=O)N1[C@H](c1ccc(Cl)cc1)[C@@H]1C(=O)N(C3CCCCC3)C(=O)[C@@H]12 | 13.2
65 | C=C(C)CNC(=O)c1ccc2nc(Cc3ccc(OC)cc3)oc2c1 | 13.3
66 | O=S(=O)(Nc1nc2ccccc2nc1NCC1CCCO1)c1ccc(F)cc1 (stereo not shown) | -1.06

Row | Compound | hERG current change (%, negative = inhibition) at 10uM [%]
67 | CC(C)c1ccc(NC(=O)Cn2nnc(C(=O)NCc3ccco3)c2N)cc1 | 28.9
68 | COc1ccc(-n2nnnc2SCC(=O)Nc2cccc(O)c2)cc1 | -4.09
69 | CCCn1c(=O)c(C(=O)Nc2ncccc2O)c(O)c2ccccc21 | 11.1
70 | COc1ccc(/C=N/OCC(=O)N2CC3(C)CC2CC(C)(C)C3)cc1 (stereo not shown) | -56
71 | CCc1nc2ccc(C(=O)N3CCN(c4cccc(Cl)c4)CC3)cc2nc1CC | 1.12
72 | CC(=O)c1cccc(NC(=O)CN2CCc3cc4c(cc3C2C)OCCCO4)c1 (stereo not shown) | -27.8
73 | CN(C(=O)C1CC1)C1CCS(=O)(=O)C1 (stereo not shown) | 14.7
74 | CCN(CC)CCOC(=O)C1(c2ccc([N+](=O)[O-])cc2)CCCC1.Cl | -48.6
75 | Cc1ccc(N2C(=O)c3ccccc3C2=O)cc1 | 11.1
76 | COc1ccccc1NC(=O)C(=O)N/N=C(\C)CC(=O)Nc1ccccn1 | 10.8
77 | CC(=O)c1ccccc1C(=O)N(C)C1CCCN(Cc2ccccc2F)C1 (stereo not shown) | 15.2
78 | C[C@H](NC(=O)c1[nH]cnc1C(=O)Nc1ccccc1)c1ccccc1 | 3.23
79 | CCCC(=O)NC(=S)Nc1sc2c(c1C(N)=O)CCC2 | 11.7
80 | COc1ccccc1N(CC(=O)Nc1ccc(S(=O)(=O)N2CCOCC2)cc1)S(C)(=O)=O | 3.87
81 | CC(C)C1Cc2c(sc3c2c(=O)n(Cc2ccccc2)c2nncn32)CO1 (stereo not shown) | -11
82 | COc1cccc(CNC(=O)CN(C)S(=O)(=O)c2ccc3c(c2)CC(C)N3C(C)=O)c1 (stereo not shown) | 23.3
83 | O=C(Nc1ccccc1)N1CCc2scc[n+]2-c2ccccc21.[Br-] | 6.01
84 | Cc1cc(C(=O)Cn2c(CO)nc3ccccc32)c(C)n1C | 26.7
85 | O=C(O)c1ccc(N2CCCCC2)cc1 | 7.42
86 | COC(=O)Nc1nnc(-c2ccccc2Cl)s1 | 0.0234
87 | N#Cc1cnc2nc(SCc3ccccc3)nn2c1 | 9.96
88 | COc1cc(C2C(C(=O)c3cccs3)=C(O)C(=O)N2CCN2CCOCC2)cc(OC)c1OC (stereo not shown) | 14.3
